Some of the results follow. Further columns of the screen follow, without active or inactive calls. The list favours compounds with an active or inconclusive main result. For some assays here: Potencies come from curve fits of mixed quality, noted in brackets.
Key:
[1] = qHTS Assay for Lipid Storage Modulators (AID 1519); details: Drosophila S3 cells, BODIPY lipid droplet/cell ratio, laser cytometry, cells loaded with oleic acid
Method in brief: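 Cells seeded at 5,000 per well were treated with compounds over a concentration series and loaded with oleic acid (400 uM, as added). Lipid droplet fluorescence (488 nm excitation, 500-530 nm channel) was read by laser-scanning cytometry and normalized to 20 uM Triacsin C.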

[2] = S16 Schwann cell PMP22 intronic element beta-lactamase assay (AID 624044); details: S16 rat Schwann cells, PMP22 element beta-lactamase FRET, 24 h; further: nearly all actives have a fitted effect of over 15% in size
Method in brief: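 Rat S16 Schwann cells with beta-Lac driven by a PMP22 intronic element, compound-treated 24 h at 37 °C. LiveBLAzer FRET B/G read: 460 nm normalized to potassium clavulanate vs DMSO; 535 nm FRET as viability; concentration-effect curves classified.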

[3] = qHTS Assay for Inhibitors of PDE-IV (AID 607); details: HEK293 ACTOne CNG channel cells, membrane potential fluorescence; measured here: parental cell counter-screen;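 further: parental cells stimulated with forskolin 10 µM plus RO 20-1724 100 µM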
Method in brief: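 HEK293 ACTOne cells with CNG channel (1000/well), endogenous PDE4; membrane potential dye, compounds up to 22.9 uM final. Fluorescence Ex 535/Em 590; RO 20-1724 (100 uM final) as reference.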

[4] = qHTS for identification of novel therapeutic agents for treatment of microphthalmiaassociated transcription factor (MiT) renal cell carcinoma (RCC) (AID 1963991); details: CellTiter-Glo, 48 h; for z-score: stronger effect = lower value
Method in brief: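 Three TFE3-fusion RCC lines (UOK109, UOK124, UOK145), 500 cells/well in complete medium, were treated with MIPE 4.0 compounds for 48 hours at 37 C. Viability was by CellTiter-Glo luminescence, normalized to DMSO (100%) and empty wells (0%); curves fitted over 11 concentrations.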

[5] = qHTS assay for small molecule antagonists of peroxisome proliferator-activated receptor delta signaling (AID 588535); details: HEK293T PPARd-UAS-bla, beta-lactamase FRET ratio, 18 h; 460 nm channel;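 further: cells co-treated with a PPAR-delta agonist as stimulator during compound exposure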
Method in brief: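 HEK293T PPAR-delta-UAS-bla cells, 4000/well, 2% charcoal/dextran FBS; 5 h 37 C; cpd titration; 18 h 37 C; CCF4 2 h RT; FI 460/530 nm; Hill fit → IC50, efficacy.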

[6] = qHTS assay for small molecule agonists of retinoid X receptor alpha signaling (AID 588544); details: HEK293T RXRa-UAS-bla, beta-lactamase reporter, 18 h; 530 nm emission
[7] = qHTS assay for small molecule antagonists of retinoid X receptor alpha signaling (AID 588546); details: HEK293T RXRa-UAS-bla, beta-lactamase ratio, antagonist mode; measured here: W530 green channel, cytotoxicity proxy;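 further: cells stimulated with 9-cis-retinoic acid as agonist; on the % scale 0 is the no-effect control and ±100 the full control effect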
Method in brief: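 Beta-lactamase reporter inhibition, read as CCF4 fluorescence ratio (ex 405, em 460/530 nm) after 2 h at RT. HEK293T UAS-bla cells, 2500/well, were stimulated with 9-cis-RA at 500 or 100 nM final alongside test compound for 18 h at 37 C.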

[8] = qHTS assay for small molecule antagonists of peroxisome proliferator-activated receptor gamma signaling (AID 588537); details: HEK293 PPARg-UAS-bla, beta-lactamase ratio, antagonist mode; measured here: W460 blue channel
Method in brief: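 Antagonist mode, beta-lactamase reporter in HEK293; charcoal/dextran FBS 1%; 3000 cells/well, 37 C 6-6.5 h; cpd titration + rosiglitazone 50 nM final, 16 h 37 C; CCF4, 2 h RT; 460/530 nm; Hill fit → IC50, efficacy.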

[9] = qHTS Assay for Modulators of Human Peripheral Myelin Protein 22 (PMP22) Expression/Activity (AID 1967); details: Cell-based PMP22 reporter, dual-color luciferase ratio
Method in brief: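 Quantitative HTS in a mouse Schwann cell line expressing dual click beetle luciferases: Pmp22 promoter (green) and control EF-alpha promoter (red). After 24h treatment, corrected green/red signal ratio gave %Activity relative to untreated cells.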

[10] = qHTS Validation Assay to Find Inhibitors of Chronic Active B-Cell Receptor Signaling (AID 485345); details: ABC-DLBCL cells, chronic BCR signaling reporter; measured here: CBG/CBR ratio read-out
Method in brief: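 Read-out: ratio of filter-corrected green (IkappaBalpha fusion) to red (native) luciferase signal in doxycycline-induced TMD8 cells after 4 h at 37C. Titration spanned 46 uM–3 nM; Data were normalised to basal cells and 10 uM MG-132 wells.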

[11] = measured here: cell count channel max response
[12] = measured here: cell number channel AC50
[13] = measured here: lipid (BODIPY) channel AC50
[14] = measured here: lipid channel max response
[15] = measured here: green reporter channel AC50, mouse Pmp22 promoter in mouse Schwann cells
[16] = measured here: red reporter channel AC50, EF-alpha promoter control reporter in MSC80 mouse Schwann cells
Tags describe the fitted curve by direction and shape.

COc1cc([C@@H]2c3cc4c(cc3[C@H](O)[C@H]3COC(=O)[C@H]23)OCO4)cc(OC)c1OC
max response [1, 11]: 99.6%
AC50 [1, 12]: 1.12 µM [rising, full curve]
AC50 [1, 13]: 2 µM [rising, full curve]
max response [1, 14]: 118%
AC50 ([2]; measured here: 460 nm blue channel): 0.0199 µM [falling, full curve]
AC50 ([2]; measured here: 530 nm viability channel): 0.1 µM [rising, full curve, poor fit]

O=C1/C(=C\c2ccccc2)C[C@@]2(O)[C@H]3Cc4ccc(O)c5c4[C@@]2(CCN3CC2CC2)[C@@H]1O5
AC50 [3]: 20 µM [rising, single point]
max response [1, 11]: 20.5%
AC50 [1, 12]: 7.94 µM [rising, full curve, poor fit]
AC50 [1, 13]: 2.51 µM [rising, full curve, poor fit]
max response [1, 14]: -26%

O=c1[nH]oc2c1CCNC2
AC50 [3]: 0.000631 µM [rising, full curve, poor fit]
max response [1, 11]: 38%
AC50 [1, 12]: 35.5 µM [rising, single point]
AC50 [1, 13]: 6.31 µM [rising, single point]
max response [1, 14]: 34.4%

O=c1cccc2n1CC1CNC[C@H]2C1
max response [1, 11]: -28.7%
AC50 [1, 13]: 7.94 µM [falling, full curve, poor fit]
max response [1, 14]: -36.3%
z-score ([4]; TFE3-RCC UOK109 viability, measured here: UOK109 Z-AUC): -0.421
z-score ([4]; TFE3-RCC viability, measured here: UOK124 Z-AUC): 0.0551
AC50 ([4]; TFE3-RCC viability, measured here: UOK124 cell viability): 2.35 µM [falling, full curve]
z-score ([4]; TFE3-RCC viability, measured here: UOK145 Z-AUC): 0.205
AC50 ([4]; TFE3-RCC viability, measured here: UOK145 cell viability): 18.7 µM [falling, partial curve]

COc1ccc(CNC(=O)/C=C\c2ccc3[nH]cc(CCN(C)C)c3c2)cc1
AC50 [3]: 10 µM [rising, full curve, poor fit]
max response [1, 11]: 59.9%
AC50 [1, 12]: 31.6 µM [rising, partial curve, poor fit]
AC50 [1, 13]: 35.5 µM [rising, partial curve, poor fit]
max response [1, 14]: 82%

CCOP(=S)(OCC)Oc1ccc2c(C)c(Cl)c(=O)oc2c1
max response [1, 11]: 10.5%
AC50 [1, 13]: 0.501 µM [rising, full curve, poor fit]
max response [1, 14]: 20%
max response [5]: 85.3%
max response [6]: 25.7%
max response [7]: 14.8%

O=P1(N(CCCl)CCCl)NCCCO1 (centres undefined)
max response [1, 11]: 29.2%
AC50 [1, 13]: 39.8 µM [rising, single point]
max response [1, 14]: 46.1%
AC50 [8]: 50.1 µM [rising, single point]

COc1ccc2c(c1)[C@@]13CCCC[C@H]1[C@@H](C2)NCC3
max response [1, 11]: 46.2%
AC50 [1, 13]: 39.8 µM [rising, single point]
max response [1, 14]: 46%
AC50 [9, 15]: 84.9 µM [falling, single point]
AC50 [9, 16]: 84.9 µM [falling, single point]
AC50 [10]: 16.4 µM [falling, single point]

COC(=O)CN1CN(c2ccccc2)C2(CCN(Cc3ccc4ccccc4c3)CC2)C1=O
AC50 [3]: 20 µM [rising, single point]
max response [1, 11]: 75.3%
AC50 [1, 12]: 28.2 µM [rising, partial curve, poor fit]
AC50 [1, 13]: 25.1 µM [rising, partial curve]
max response [1, 14]: 99.9%

CNCCCN1c2ccccc2CCc2ccccc21
max response [1, 11]: -14.3%
AC50 [1, 12]: 22.4 µM [falling, single point]
max response [1, 14]: -14.7%
AC50 [9, 15]: 33.8 µM [falling, full curve]
AC50 [9, 16]: 23.9 µM [falling, full curve]

c1ccc(CCCCN2CCC(c3ccccc3)CC2)cc1
AC50 [3]: 10 µM [rising, partial curve]
max response [1, 11]: 59.5%
AC50 [1, 12]: 35.5 µM [rising, partial curve, poor fit]
AC50 [1, 13]: 35.5 µM [rising, partial curve, poor fit]
max response [1, 14]: 75.1%

CN1[C@@H]2CC[C@H]1CC(O[C@@H](c1ccccc1)c1ccc(Cl)cc1)C2 (some centres undefined)
AC50 [3]: 10 µM [rising, partial curve]
max response [1, 11]: 49.6%
AC50 [1, 12]: 35.5 µM [rising, single point]
AC50 [1, 13]: 35.5 µM [rising, single point]
max response [1, 14]: 60.7%

CC(C)(O)C1C2OC(=O)C1[C@]1(O)C[C@H]3O[C@]34C(=O)O[C@H]2[C@]14C (some centres undefined) (tested in a mixture with another compound)
max response [1, 11]: 57.1%
AC50 [1, 13]: 5.62 µM [falling, full curve, poor fit]
max response [1, 14]: 41.4%
AC50 [9, 16]: 84.9 µM [falling, single point]

CN(C(=O)Cc1ccc(Cl)c(Cl)c1)[C@H](CN1CCCC1)c1ccccc1
AC50 [3]: 15.8 µM [rising, partial curve, poor fit]
max response [1, 11]: 58.5%
AC50 [1, 12]: 3.16 µM [rising, full curve]
AC50 [1, 13]: 2.82 µM [rising, full curve]
max response [1, 14]: 78.6%
